Drawing on PMC8649222, “Exclusive inhibition of IL-6 trans-signaling by soluble gp130^FlyRFc” (Cytokine: X, 2021), this text covers Kd for one molecule.

Holding throughout (test): SPR; Biacore X100, multi-cycle; sgp130Fc variants captured on a Protein A chip (~500 RU); HIL-6 or HIL-11 injected at 0.1953-50 nM, 30 µl/min; 25 °C, PBS pH 7.4, 0.05% surfactant P20; 1:1 binding model
Conditions in all cases: both partners purified

The target of experiment [1] is T1, sgp130Fc (human, UniProt P40189 23-619).
T1 construct: gp130, all six extracellular domains (D1-D6); also called soluble gp130Fc; olamkicept; source: stably transfected CHO-K1 cells (roller bottles), purified from supernatant (protein A)
T1 sequence (looked up): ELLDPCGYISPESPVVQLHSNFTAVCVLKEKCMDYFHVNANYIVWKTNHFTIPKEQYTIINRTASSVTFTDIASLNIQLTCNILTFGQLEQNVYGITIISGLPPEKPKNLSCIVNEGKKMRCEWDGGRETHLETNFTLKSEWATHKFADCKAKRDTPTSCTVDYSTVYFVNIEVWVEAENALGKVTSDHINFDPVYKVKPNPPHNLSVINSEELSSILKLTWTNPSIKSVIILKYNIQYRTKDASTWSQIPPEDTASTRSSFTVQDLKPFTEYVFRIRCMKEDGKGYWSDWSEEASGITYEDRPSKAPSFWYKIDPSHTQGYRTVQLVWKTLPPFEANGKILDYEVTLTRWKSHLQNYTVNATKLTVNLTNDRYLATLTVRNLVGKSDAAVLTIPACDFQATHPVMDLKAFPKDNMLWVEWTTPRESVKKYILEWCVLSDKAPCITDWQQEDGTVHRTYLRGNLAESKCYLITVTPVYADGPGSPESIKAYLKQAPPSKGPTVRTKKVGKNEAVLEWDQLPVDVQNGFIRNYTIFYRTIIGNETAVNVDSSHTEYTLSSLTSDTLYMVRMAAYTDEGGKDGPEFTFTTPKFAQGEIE

Experiment [2] concerns the target T2, sgp130^R281QFc (human, UniProt P40189 23-619, R281Q).
T2 construct: gp130, all six extracellular domains (D1-D6), with the patient SNP R281Q in domain 3; Disulfide-linked dimer through the Fc; Made by site-directed mutagenesis of the sgp130Fc plasmid; R281Q is a SNP found in a patient; source: Expi293 cells, transiently transfected, purified from supernatant (protein A)
T2 sequence (looked up): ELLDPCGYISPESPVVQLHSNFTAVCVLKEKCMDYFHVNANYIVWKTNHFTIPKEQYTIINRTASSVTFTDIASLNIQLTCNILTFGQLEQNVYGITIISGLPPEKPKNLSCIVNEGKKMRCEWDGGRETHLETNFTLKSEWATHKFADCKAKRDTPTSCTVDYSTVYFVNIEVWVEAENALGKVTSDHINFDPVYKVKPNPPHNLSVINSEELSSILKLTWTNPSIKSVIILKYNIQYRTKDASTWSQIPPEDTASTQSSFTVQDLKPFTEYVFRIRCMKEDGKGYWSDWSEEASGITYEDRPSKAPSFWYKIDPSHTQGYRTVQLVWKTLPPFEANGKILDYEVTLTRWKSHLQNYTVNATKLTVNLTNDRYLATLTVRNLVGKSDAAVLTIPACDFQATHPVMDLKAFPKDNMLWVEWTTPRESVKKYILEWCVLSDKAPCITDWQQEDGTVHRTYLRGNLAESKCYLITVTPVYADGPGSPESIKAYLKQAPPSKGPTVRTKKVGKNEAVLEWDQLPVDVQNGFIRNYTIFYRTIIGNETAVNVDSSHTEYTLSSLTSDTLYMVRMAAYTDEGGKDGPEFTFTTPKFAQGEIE

In experiment [3] the target is T3, sgp130^FlyRFc (human, UniProt P40189 23-619, T102Y | Q113F | N114L | R281Q).
T3 construct: gp130, all six extracellular domains (D1-D6), with the Fly mutations and R281Q; Disulfide-linked dimer through the Fc; Made by site-directed mutagenesis of the sgp130^FLYFc plasmid; also called sgp130^Fly,R281QFc; sgp130^FLY/R281QFc; source: Expi293 cells, transiently transfected, purified from supernatant (protein A)
T3 sequence (looked up): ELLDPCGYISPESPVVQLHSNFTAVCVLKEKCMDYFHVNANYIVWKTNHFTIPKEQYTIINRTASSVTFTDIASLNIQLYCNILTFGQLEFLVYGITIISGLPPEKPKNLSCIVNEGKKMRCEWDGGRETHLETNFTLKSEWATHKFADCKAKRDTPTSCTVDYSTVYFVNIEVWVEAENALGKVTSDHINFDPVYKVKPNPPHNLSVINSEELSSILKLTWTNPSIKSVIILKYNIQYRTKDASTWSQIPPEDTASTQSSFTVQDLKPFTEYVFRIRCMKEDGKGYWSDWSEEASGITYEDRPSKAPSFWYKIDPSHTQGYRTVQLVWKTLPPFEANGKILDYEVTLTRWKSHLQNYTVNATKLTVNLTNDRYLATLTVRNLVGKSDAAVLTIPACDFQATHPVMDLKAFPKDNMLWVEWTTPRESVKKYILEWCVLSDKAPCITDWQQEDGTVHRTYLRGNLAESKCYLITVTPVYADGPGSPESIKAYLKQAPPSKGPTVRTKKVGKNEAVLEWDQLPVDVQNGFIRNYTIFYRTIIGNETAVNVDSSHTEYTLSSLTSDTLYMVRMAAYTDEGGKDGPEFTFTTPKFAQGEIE

B1: Hyper IL-6 (HIL-6), fusion protein of IL-6 and the soluble IL-6R connected by a flexible peptide linker (other)
chain: LAPRRCPAQEVARGVLTSLPGDSVTLTCPGVEPEDNATVHWVLRKPAAGSHPSRWAGMGRRLLLRSVQLHDSGNYSCYRAGRPAGTVHLLVDVPPEEPQLSCFRKSPLSNVVCEWGPRSTPSLTTKAVLLVRKFQNSPAEDFQEPCQYSQESQKFSCQLAVPEGDSSFYIVSMCVASSVGSKFSKTQTFQGCGILQPDPPANITVTAVARNPRWLSVTWQDPHSWNSSFYRLRFELRYRAERSKTFTTWMVKDLQHHCVIHDAWSGLRHVVQLRAQEEFGQGEWSEWSPEAMGTPWTESRSPPAENEVSTPMQALTTNKDDDNILFRDSANATSLPVQDSSSVP[about 200 residues left out]
As usually defined, the Kd is the free concentration of one partner at which half of the binding sites on the other are occupied at equilibrium, for simple one-to-one binding. Read a low Kd as higher affinity. As to B1, the values for the equilibrium dissociation constant (Kd) in experiment [1], in experiment [2] and in experiment [3] were 0.148 nM, 0.095 nM and 0.042 nM, respectively.
